This is one part of the list.
Experiments:
Experiment in all cases: glycan array binding signal (z-score within array); higher = stronger binding
Settings in all cases: glycan notation: IUPAC condensed, linker removed
Gal(a1-6)Glc = target: Gal(a1-6)Glc
Method in brief: (§1)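 The Consortium for Functional Glycomics database supplied 3228 glycan arrays, of which those lacking an available protein sequence were dropped. The binding signal, a within-array Z-score, was averaged across arrays of the same protein sequence and across linkers. Negative scores can be read as non-binding.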

Gal(b1-2)Gal = target: Gal(b1-2)Gal
Method in brief: as §1

Gal(b1-3)Gal = target: Gal(b1-3)Gal
Method in brief: as §1

Gal(b1-3)Gal(b1-4)GlcNAc = target: Gal(b1-3)Gal(b1-4)GlcNAc
Method in brief: as §1

Gal(b1-3)GalNAc = target: Gal(b1-3)GalNAc
Method in brief: as §1

[1] = target: Gal(b1-3)GalNAc(a1-3)[Fuc(a1-2)]Gal(b1-4)Glc
Method in brief: as §1

[2] = target: Gal(b1-3)GalNAc(a1-3)[Fuc(a1-2)]Gal(b1-4)GlcNAc
Method in brief: as §1

Gal(b1-3)GalNAc(b1-3)Gal = target: Gal(b1-3)GalNAc(b1-3)Gal
Method in brief: as §1

[3] = target: Gal(b1-3)GalNAc(b1-3)Gal(a1-4)Gal(b1-4)Glc
Method in brief: as §1

[4] = target: Gal(b1-3)GalNAc(b1-4)Gal(b1-4)Glc
Method in brief: as §1

[5] = target: Gal(b1-3)GalNAc(b1-4)[Neu5Ac(a2-3)]Gal(b1-4)Glc
Method in brief: as §1

Gal(b1-3)GlcNAc = target: Gal(b1-3)GlcNAc
Method in brief: as §1

[6] = target: Gal(b1-3)GlcNAc(a1-3)Gal(b1-4)GlcNAc
Method in brief: as §1

[7] = target: Gal(b1-3)GlcNAc(a1-6)Gal(b1-4)GlcNAc
Method in brief: as §1

Gal(b1-3)GlcNAc(b1-2)Man = target: Gal(b1-3)GlcNAc(b1-2)Man
Method in brief: as §1

[8] = target: Gal(b1-3)GlcNAc(b1-2)Man(a1-3)[Gal(b1-3)GlcNAc(b1-2)Man(a1-6)]Man(b1-4)GlcNAc(b1-4)GlcNAc
Method in brief: as §1

[9] = target: Gal(b1-3)GlcNAc(b1-2)Man(a1-3)[Gal(b1-3)GlcNAc(b1-2)Man(a1-6)]Man(b1-4)GlcNAc(b1-4)[Fuc(a1-6)]GlcNAc
Method in brief: as §1

[10] = target: Gal(b1-3)GlcNAc(b1-2)Man(a1-3)[GlcNAc(b1-4)][Gal(b1-3)GlcNAc(b1-2)Man(a1-6)]Man(b1-4)GlcNAc(b1-4)GlcNAc
Method in brief: as §1

[11] = target: Gal(b1-3)GlcNAc(b1-2)[Gal(b1-3)GlcNAc(b1-6)]Man(a1-6)[Gal(b1-3)GlcNAc(b1-2)Man(a1-3)]Man(b1-4)GlcNAc(b1-4)GlcNAc
Method in brief: as §1

[12] = target: Gal(b1-3)GlcNAc(b1-3)Gal(b1-3)GlcNAc
Method in brief: as §1

[13] = target: Gal(b1-3)GlcNAc(b1-3)Gal(b1-4)Glc
Method in brief: as §1

[14] = target: Gal(b1-3)GlcNAc(b1-3)Gal(b1-4)GlcNAc
Method in brief: as §1

[15] = target: Gal(b1-3)GlcNAc(b1-3)Gal(b1-4)GlcNAc(b1-2)Man(a1-3)[Gal(b1-3)GlcNAc(b1-3)Gal(b1-4)GlcNAc(b1-2)Man(a1-6)]Man(b1-4)GlcNAc(b1-4)GlcNAc
Method in brief: as §1

[16] = target: Gal(b1-3)GlcNAc(b1-3)Gal(b1-4)GlcNAc(b1-2)[Gal(b1-3)GlcNAc(b1-3)Gal(b1-4)GlcNAc(b1-6)]Man(a1-6)[Gal(b1-3)GlcNAc(b1-3)Gal(b1-4)GlcNAc(b1-2)Man(a1-3)]Man(b1-4)GlcNAc(b1-4)[Fuc(a1-6)]GlcNAc
Method in brief: as §1

[17] = target: Gal(b1-3)GlcNAc(b1-3)Gal(b1-4)GlcNAc(b1-3)Gal(b1-4)GlcNAc(b1-2)[Gal(b1-3)GlcNAc(b1-3)Gal(b1-4)GlcNAc(b1-3)Gal(b1-4)GlcNAc(b1-6)]Man(a1-6)[Gal(b1-3)GlcNAc(b1-3)Gal(b1-4)GlcNAc(b1-3)Gal(b1-4)GlcNAc(b1-2)Man(a1-3)]Man(b1-4)GlcNAc(b1-4)[Fuc(a1-6)]GlcNAc
Method in brief: as §1

[18] = target: Gal(b1-3)GlcNAc(b1-3)Gal(b1-4)GlcNAc(b1-6)[Gal(b1-3)GlcNAc(b1-3)]Gal(b1-4)Glc
Method in brief: as §1

[19] = target: Gal(b1-3)GlcNAc(b1-3)Gal(b1-4)[Fuc(a1-3)]GlcNAc
Method in brief: as §1

[20] = target: Gal(b1-3)GlcNAc(b1-3)Gal(b1-4)[Fuc(a1-3)]GlcNAc(b1-6)[Gal(b1-3)GlcNAc(b1-3)]Gal(b1-4)Glc
Method in brief: as §1

[21] = target: Gal(b1-3)GlcNAc(b1-3)GalNAc
Method in brief: as §1

[22] = target: Gal(b1-3)GlcNAc(b1-6)Gal(b1-4)GlcNAc
Method in brief: as §1

[23] = target: Gal(b1-3)GlcNAc(b1-6)GalNAc
Method in brief: as §1

[24] = target: Gal(b1-3)GlcNAc(b1-6)[Gal(b1-3)]GalNAc
Method in brief: as §1

Gal(b1-3)GlcNAc6S = target: Gal(b1-3)GlcNAc6S
Method in brief: as §1

[25] = target: Gal(b1-3)[Fuc(a1-4)]GlcNAc
Method in brief: as §1

[26] = target: Gal(b1-3)[Fuc(a1-4)]GlcNAc(b1-2)Man
Method in brief: as §1

[27] = target: Gal(b1-3)[Fuc(a1-4)]GlcNAc(b1-2)Man(a1-3)[Gal(b1-3)[Fuc(a1-4)]GlcNAc(b1-2)Man(a1-6)]Man(b1-4)GlcNAc(b1-4)[Fuc(a1-6)]GlcNAc
Method in brief: as §1

[28] = target: Gal(b1-3)[Fuc(a1-4)]GlcNAc(b1-3)Gal(b1-3)[Fuc(a1-4)]GlcNAc
Method in brief: as §1

[29] = target: Gal(b1-3)[Fuc(a1-4)]GlcNAc(b1-3)Gal(b1-4)[Fuc(a1-3)]GlcNAc
Method in brief: as §1

[30] = target: Gal(b1-3)[Fuc(a1-4)]GlcNAc(b1-6)GalNAc
Method in brief: as §1

[31] = target: Gal(b1-3)[GlcNAc(b1-6)]GalNAc
Method in brief: as §1

[32] = target: Gal(b1-3)[Neu5Ac(a2-6)]GalNAc
Method in brief: as §1

[33] = target: Gal(b1-3)[Neu5Ac(a2-6)]GlcNAc(b1-4)Gal(b1-4)Glc
Method in brief: as §1

[34] = target: Gal(b1-3)[Neu5Ac(b2-6)]GalNAc
Method in brief: as §1

Gal(b1-4)Gal = target: Gal(b1-4)Gal
Method in brief: as §1

[35] = target: Gal(b1-4)GalNAc(a1-3)[Fuc(a1-2)]Gal(b1-4)GlcNAc
Method in brief: as §1

B1: Banana lectin (Musa acuminata) (protein)
chain: MNGAIKVGAWGGNGGSAFDMGPAYRIISVKIFSGDVVDAVDVTFTYYGKTETRHFGGSGGTPHEIVLQEGEYLVGMKGEFGNYHGVVVVGKLGFSTNKKSYGPFGNTGGTPFSLPIAAGKISGFFGRGGDFIDAIGVYLEP
glycan array binding signal (z-score) (Gal(a1-6)Glc): -0.203
glycan array binding signal (z-score) (Gal(b1-2)Gal): -0.202
glycan array binding signal (z-score) (Gal(b1-3)Gal): -0.195
glycan array binding signal (z-score) (Gal(b1-3)Gal(b1-4)GlcNAc): -0.194
glycan array binding signal (z-score) (Gal(b1-3)GalNAc): -0.194
glycan array binding signal (z-score) [1]: -0.194
glycan array binding signal (z-score) [2]: -0.195
glycan array binding signal (z-score) (Gal(b1-3)GalNAc(b1-3)Gal): -0.195
glycan array binding signal (z-score) [3]: -0.192
glycan array binding signal (z-score) [4]: -0.193
glycan array binding signal (z-score) [5]: -0.195
glycan array binding signal (z-score) (Gal(b1-3)GlcNAc): -0.193
glycan array binding signal (z-score) [6]: 3.21
glycan array binding signal (z-score) [7]: -0.163
glycan array binding signal (z-score) (Gal(b1-3)GlcNAc(b1-2)Man): -0.191
glycan array binding signal (z-score) [8]: 0.348
glycan array binding signal (z-score) [9]: -0.058
glycan array binding signal (z-score) [10]: 0.288
glycan array binding signal (z-score) [11]: 0.108
glycan array binding signal (z-score) [12]: -0.192
glycan array binding signal (z-score) [13]: -0.193
glycan array binding signal (z-score) [14]: -0.193
glycan array binding signal (z-score) [15]: -0.059
glycan array binding signal (z-score) [16]: 0.334
glycan array binding signal (z-score) [17]: 0.323
glycan array binding signal (z-score) [18]: -0.193
glycan array binding signal (z-score) [19]: -0.195
glycan array binding signal (z-score) [20]: -0.194
glycan array binding signal (z-score) [21]: -0.195
glycan array binding signal (z-score) [22]: -0.194
glycan array binding signal (z-score) [23]: -0.193
glycan array binding signal (z-score) [24]: -0.173
glycan array binding signal (z-score) (Gal(b1-3)GlcNAc6S): -0.193
glycan array binding signal (z-score) [25]: -0.195
glycan array binding signal (z-score) [26]: -0.19
glycan array binding signal (z-score) [27]: 0.897
glycan array binding signal (z-score) [28]: -0.184
glycan array binding signal (z-score) [29]: -0.201
glycan array binding signal (z-score) [30]: -0.19
glycan array binding signal (z-score) [31]: -0.192
glycan array binding signal (z-score) [32]: -0.193
glycan array binding signal (z-score) [33]: -0.194
glycan array binding signal (z-score) [34]: -0.193
glycan array binding signal (z-score) (Gal(b1-4)Gal): -0.194
glycan array binding signal (z-score) [35]: -0.193
